The labels stand for the following.
B1: PhoQ; a variant is named by its letters at X, in order, P23837 (parent)
chain: MKKLLRLFFPLSLRVRFLLATAAVVLVLSLAYGMVALIGYSVSFDKTTFRLLRGESNLFYTLAKWENNKLHVELPENIDKQSPTMTLIYDENGQLLWAQRDVPWLMKMIQPDWLKSNGFHEIEADVNDTSLLLSGDHSIQQQLQEVREDDDDAEMTHSVAVNVYPATSRMPKLTIVVVDTIPVELKSSYMVWSWFIYVLSANLLLVIPLLWVAAWWSLRPIEALAKEVRELEEHNRELLNPATTRELTSLVRNLNRLLKSERERYDKYRTTLTDLTHSLKTPLXXLQXXLRSLRSEKMSVSDAEPVMLEQISRISQQIGYYLHRASMRGGTLLSRELHPVAPLLDNLTSALNKVYQRKGVNISLDISPEISFVGEQNDFVEVMGNVLDNACKYCLEFVEISARQTDEHLYIVVEDDGPGIPLSKREVIFDRGQRVDTLRPGQGVGLAVAREITEQYEGKIVAGESMLGGARMEVIFGRQHSAPKDE

Some of the results follow.

This test covers variants of B1. In words: enrichment ratio after two sorts for PhoP signalling (ratio (wild type AVST 3.29)); higher = more functional. To be noted: with PhoP (E. coli).
Regarding FMQR, the enrichment ratio is no more than 0.25.

FAKT: the enrichment ratio is no more than 0.25. With RAQS the figure was no more than 0.25; with TKKH, 2.99; with PFGR, no more than 0.25. For VWNQ the value was no more than 0.25; for DKSI, no more than 0.25.

Regarding VEEM, the enrichment ratio is no more than 0.25. In the case of PYQN, the enrichment ratio was no more than 0.25. Consider FTHA, for which the enrichment ratio is no more than 0.25.

NHPC: the enrichment ratio was no more than 0.25. As for AVEK, the enrichment ratio was no more than 0.25. For WCMR the value was no more than 0.25. In the case of KHDS, the enrichment ratio was no more than 0.25. As to CCLL, the enrichment ratio was 0.38. For YFKS the value was no more than 0.25; for FWPC, no more than 0.25; for ASTL, 20.2. For the variant MTHF, the enrichment ratio came out at 1.74. With GYTS the figure was no more than 0.25; with RVGT, no more than 0.25.

Take SGML: the enrichment ratio turned out to be 17.4. Regarding VDTH, the enrichment ratio is no more than 0.25. For IPYN the value was no more than 0.25.

With FQKN, the enrichment ratio was no more than 0.25. On to CSLP, for which the enrichment ratio was no more than 0.25. Turning to NKVR, the enrichment ratio was no more than 0.25. In the case of VEVW, the enrichment ratio was no more than 0.25. With FWGV the figure was no more than 0.25. DTMI: the enrichment ratio is no more than 0.25. For QAPN, the enrichment ratio was no more than 0.25. With YEPH the figure was no more than 0.25; with HVLG, no more than 0.25; with LPIN, no more than 0.25.

As for GYTL, the enrichment ratio is no more than 0.25.

On to GRDC, for which the enrichment ratio is no more than 0.25. For SYYM the value was no more than 0.25. With NSHE the figure was no more than 0.25. For TPLQ the value was no more than 0.25; for FVLE, no more than 0.25. As to ECKR, the enrichment ratio was no more than 0.25.

KNWV: the enrichment ratio was no more than 0.25. For YFWA the value was no more than 0.25. On to HKSD, for which the enrichment ratio was no more than 0.25.

GNVH: the enrichment ratio was no more than 0.25. Consider FRNV, for which the enrichment ratio was no more than 0.25.

As for PFIG, the enrichment ratio is no more than 0.25.

On to TCKT, for which the enrichment ratio was no more than 0.25.

Regarding QSIF, the enrichment ratio was no more than 0.25.

For the variant WFID, the enrichment ratio is no more than 0.25.

For KLAH, the enrichment ratio is no more than 0.25.

Take LRCV: the enrichment ratio was no more than 0.25. WRFV: the enrichment ratio is no more than 0.25. Turning to HADD, the enrichment ratio is no more than 0.25. For WYST the value was no more than 0.25; for NQST, no more than 0.25. As for RPCI, the enrichment ratio is no more than 0.25. With FVVC the figure was no more than 0.25; with GDVI, 20.

In the case of EIMT, the enrichment ratio is no more than 0.25.

As for SLEA, the enrichment ratio was no more than 0.25. For the variant PMWA, the enrichment ratio was no more than 0.25. With ALVF the figure was 0.451; with VAIC, no more than 0.25; with IAYK, no more than 0.25. SKSM: the enrichment ratio was 14. With FTTR the figure was no more than 0.25; with SRKW, no more than 0.25. As for TFIF, the enrichment ratio is no more than 0.25. For LLKE the value was no more than 0.25; for YMQE, no more than 0.25; for QDKH, no more than 0.25. With QTVL the figure was no more than 0.25. For NWQR the value was no more than 0.25; for DLEK, no more than 0.25; for HACR, no more than 0.25. As for IDMT, the enrichment ratio was no more than 0.25. For FGDF the value was no more than 0.25; for HTQR, no more than 0.25; for EPYR, no more than 0.25. With HTSY, the enrichment ratio was no more than 0.25. Take WDRR: the enrichment ratio is no more than 0.25. With YYVY the figure was no more than 0.25.

For the variant WTCD, the enrichment ratio was no more than 0.25.

Take PMWT: the enrichment ratio was no more than 0.25. With YEDR the figure was no more than 0.25; with AIHP, no more than 0.25. Consider DKEE, for which the enrichment ratio was no more than 0.25.

Take GGDH: the enrichment ratio is no more than 0.25. Take EQCP: the enrichment ratio was no more than 0.25. For AVCY the value was 0.936; for HEDR, no more than 0.25; for INFN, no more than 0.25. RYWG: the enrichment ratio is no more than 0.25. For the variant KLYC, the enrichment ratio is no more than 0.25. Take RGTT: the enrichment ratio was no more than 0.25.

As to TGKL, the enrichment ratio was no more than 0.25.

Turning to YFWG, the enrichment ratio was no more than 0.25.

VGHP: the enrichment ratio was no more than 0.25. For LAPD the value was no more than 0.25; for STMQ, 12; for NTNR, no more than 0.25.

Turning to DNFI, the enrichment ratio is no more than 0.25. As to DLIR, the enrichment ratio is no more than 0.25. With GENF the figure was no more than 0.25.

Turning to VCRM, the enrichment ratio was no more than 0.25.

KRFF: the enrichment ratio is no more than 0.25. On to FSMI, for which the enrichment ratio was found to be 4.67. With WMFE the figure was no more than 0.25; with HTHR, no more than 0.25; with EQAF, no more than 0.25.

As to GHVG, the enrichment ratio is no more than 0.25. With LRWE the figure was no more than 0.25; with FYPK, no more than 0.25.

In the case of GFDR, the enrichment ratio is no more than 0.25. Turning to MVCT, the enrichment ratio was no more than 0.25. On to TALF, for which the enrichment ratio came to 10.5. With LCRP the figure was no more than 0.25; with WMSW, no more than 0.25; with KCSW, no more than 0.25. Turning to LGAS, the enrichment ratio is no more than 0.25. Turning to HAKQ, the enrichment ratio is no more than 0.25.

For the variant NELC, the enrichment ratio amounted to 5.14.

As to YAPK, the enrichment ratio was no more than 0.25. For QWHA the value was no more than 0.25; for FPDH, no more than 0.25. For KIRF the value was no more than 0.25; for ARHV, no more than 0.25. Turning to NSLW, the enrichment ratio was no more than 0.25.

Consider SPSE, for which the enrichment ratio is no more than 0.25. For EMAT the value was no more than 0.25; for RATF, no more than 0.25; for VMGI, no more than 0.25. For DFHC the value was no more than 0.25; for KILA, no more than 0.25. With PKKH the figure was no more than 0.25; with GAWW, no more than 0.25; with NPNI, no more than 0.25. On to THGV, for which the enrichment ratio came to 1.56.

Take ILYM: the enrichment ratio was no more than 0.25. With YHCF the figure was no more than 0.25; with SKQS, no more than 0.25; with EVLG, no more than 0.25. For WASY, the enrichment ratio was no more than 0.25.

Consider AKSW, for which the enrichment ratio is no more than 0.25. For IAHA the value was no more than 0.25; for INAY, no more than 0.25; for VGYS, no more than 0.25. Take TRFV: the enrichment ratio was no more than 0.25.

Consider HCSW, for which the enrichment ratio is no more than 0.25. Consider MMQE, for which the enrichment ratio was no more than 0.25.

On to GMMR, for which the enrichment ratio was no more than 0.25. For the variant MPDI, the enrichment ratio is no more than 0.25.
